The source gives no read counts; variants with many changes may rest on few reads.
B1: LINE1-full (parent)
chain: UACGUAGGUGGUUUUCCCCUGAUAGUGCUAAGGGGGCCUGGAAGUUUGGACUGGGCAGAGCUCAACACAGCGUGGCAAAGUGGCUGUGGCUAGACUGCCUCUCUGGAUUCCUCGUCACUCAGCAGGGCAUCUCUGAGAGAAAUGCC

Variants of: B1
Experiment: self-cleavage, relative activity (ratio to wild type); higher = more cleavage; in vitro, sequencing; the parent is a self-cleaving ribozyme

Variant	self-cleavage
A24G G36C A107G C145A	1.23
A24U U45C U46C U132C	0
U26A U81C U87A U104A A124G	0.12
U26C A79U U108C A129G	1.67
U23C G126A U132C	1.1
U23C A30U U85A	0.07
A24U U45C U46C G74A U130C	2.2
U26A A42G C68U U104A	0.07
G25U U112C A136U	1.09
A24G U91A U119C	0.89
U26C A30C A64G	0
A24U A140G U143C	1.12
U23C C38G U52A A129C A141G	1.73
A24G A57U A77U U81A A94C	0.09
U23C A79G A94U U96C U109A A141G	0.17
U26A A30U A43G A142G	0.26
U26A A57G U132G	0
U26C A50U C110U A117G C133A	1.01
U26C A31U U119C U130A	0.69
U23C A69U A78U	0.13
U26C A50U A141G	0.41
A24G A43G A107G	0.68
A24G A65G U91G A140G	0
A24G U26C U52C	1.31

Variant	self-cleavage
U26A A78U U108C	2.26
A24G U115A A124G	1.03
A24U U39A A117G	1.68
A24U U46C U104A U112A	1.88
U23C A78U U130C	1.65
U23C G53A C66U A77G U115C A136G	0.02
A24G U52C U91C A140U	1.1
G25A G60A C113A A121U	0.03
U26C A59G U62A A69G A94U	0
A24G G41U U87C U102C A129U	0.37
U26C A59G A107U	0.31
A24C U62C G83A	0
U23C A107G U115C U130C	1.84
U23A U115G U119C	2.4
A24G U29A U143C	0.66
A24U C56U U91A U109A U130C	0.08
U23C A57G A78G A121C	0
U23C U26G U134G A140U	0.94
G25U A69U U96A	0.01
U26C A30G U143C	1.31
A24C U62C A121U	0.04
U23C U26A A69G A129U A138G U143A	0.57
A24U A69U A79G U81A U100C	0.22
A24G U26C A94G C95U	0

Variant	self-cleavage
U26A A42G U62C A69G C110U U134G A142G	0
U23C U96G U109C	0.71
U26C A31G G122A	0.74
U23C C66U U115C A124U	0.07
U26A U47A U100C	0.38
U26A A31G A43G U115C C118U	0.84
G25A A78G U112C	0.44
U26A U52A A59G A65G G70C	0.04
A24G A59U A124U	0.56
U26C A57G A138G	1.72
U23C A64U C128A A138G	0.44
A24U U52A A79G A124U	0.25
A24U A64U U115C A140G	0
A24G U45G A59U C128U	0.3
A24U A43G A65U C84U U112C	0
A24G U52A A117G A129G	0.68
G25U U96A C111U U130A	0.06
U26C A92G A136G A140U	0
A24U A64G A78G A121G	0.79
A24G G33U U96C	0.27
A24C G41A U143C	0.97
U26A C56U A69G	0.07
U23A U109C U115C	0.56
U26A A77U A136G	0.46

Variant	self-cleavage
U23A U108C A124G U130C	0
U26A A121C U143A	1.43
A24G U62C A136G	0.05
A24U A59G A129U A142G	0.04
A24G U73C C146A	2.63
U23C U46C C118U	1.25
A24G A50G U102C	0
U26C G125A A138G A140G	1.87
U26A U62A A141G	0.09
A24G A124U U143A	1.1
U23C G44A A129U U130C	1.55
U26A G72U U104C	0.69
U26A U52A U81A U87C	0.21
U26C A59G U62A A141G	0.07
U23C A42G A69G	0.86
U26C A79U A94G	0.12
A24G U52C U119C	2.68
A24U A124G A138U A141G	1.57
A24G C38A U47C A124U	0.21
U23C C71U A138G	1
U26C G34A U134C	1.51
U26C A57U U112C A140G	0.1
U26C G49C U115A U132C	1.67
U23C U46A A140G	1.09

Variant	self-cleavage
A24G U39C A57G	1.53
A24G U62C U96C	0
U26A A64G G82A A140U	0.29
U26A U62G A124G A129U	0.15
A24C A69G U91A	0.27
A24G U26C A140U	1.39
U23C A65G G126U	0.02
U26A C51U U81G U108C U112A	2.51
U26A A43G A77G U130G	0.88
U26A U85C A138G	0.15
U26A U62A U73C	0.09
U23C A31U U87C	0
U26C A124G U130C	1.15
U26A U45C U73C	0.84
A24U U47C A57U U73A	0.19
U26C C37G U119A A129U U130C	1.68
U26A U39A A107G	0.82
U26C G74U U104A U109G U132A	0.24
A24G A65C A142G	0
A24G G40C A57G U91A	0.41
U26A U46C A79U	2.38
A24G U39C A79G	1.06
U26A U85A U102A U143C	0.1
A24G U96A C146U	0.19

Variant	self-cleavage
U23C A57G A77U U112C A138G	0.51
A24G A69G U104C A138G	0
U23C U81A G105A A136G	2.85
U23C C56U A138G	0.97
A24U C28G A69U U81C A94U U130A A138G	0.32
G25A U100C G105U	1.21
G25A C95U U100G U119A A138G	0
A24G U39C U46A U52A U62C A78G	0.12
A24G G48A C120U	0.93
U23C U45C A107G	1.53
A24U A107U U108C U134C	2.45
U23C U29C A67U U91C C111A A142G	0
U26A A59G U102C	0.25
U23C G33U G89A U108C	0.06
U26A U45C A67G U112C A121U	0.54
U26C A117G U130C	2.95
U26A A94G U104C	0
U26A U39C A57U	0.03
U26C G34A A79G A142G	0.16
A24G A43G U108C A117U	2.15
U26C A117C U130G	1.53
U26A A77U G83A	0.46
U23C U115C U130C	0
U23C U26C U62C A69C C76A U100C A140G	0

Variant	self-cleavage
U26A A117G A136G	1.06
A24G U46A U85C U91A A138G U143A	0
U26C G35U A42G	0.91
U26C A59U A121G	1.56
U26A G97A U108C	0.21
A24U A65G A79U U87C C110U A129G U132C	0
U26A C68U U102C A124U U130C	0.11
U26A U39C A50G C68A	0
U26A A42G U47A A50U A69G A129U	0.07
U23C U26A A67G	0.2
U26C G89U A138G	0.03
U26A U85A A117G U134C	0
U26A A94U U112C	0.46
U26C A92U U112A	1.15
U26A C38U C76U	1.01
A24G U47C A78G U81C C90U A117G	0
A24U A77G A124G	1.2
U23C A78G U108C	0.92
U23C U73A A121G A124U	1.36
U23C U52A U62A U132C	0
A24G A67G U134A	0.66
U23C U46A U87A G127U A138G	0.09
U26C A42U A140G A141G	0.92

— the RNAGym collection of RNA variant scans (doi:10.7554/elife.90254)
